# Data as given in the supplement of paper PMC9174493.
# The list shows a part of the results. Single values of this set are uncertain. Values with irradiation are relative to irradiated vehicle.
# Columns and labels:
# A549-Dual [1] = assay: NF-kB reporter (SEAP) activity, viability-corrected, relative to vehicle (fold change vs vehicle); higher = more activation of STING-IRF / NF-kB immune response reporter; details: 10 µM
# A549-Dual [2] = assay: ISRE reporter (Lucia luciferase) activity, viability-corrected, relative to vehicle (fold change vs vehicle); higher = more activation of STING-IRF / NF-kB immune response reporter; details: 10 µM
# 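Throughout, for NF-kB reporter (SEAP) activity, viability-corrected, relative to vehicle: viability correction based on the alamar blue assay, with concentrations leaving 10% survival or less dropped.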
Structure (SMILES),NF-kB reporter (A549-Dual [1]; irradiation: 8 Gy/4 fr),NF-kB reporter (A549-Dual [1]; irradiation: none),ISRE reporter (A549-Dual [2]; irradiation: 8 Gy/4 fr),ISRE reporter (A549-Dual [2]; irradiation: none)
OC1COC(O)C(O)C1O (stereo not drawn) [D(-)-Arabinose],0.814,0.841,0.718,0.56
CC(N)C(O)c1cccc(O)c1.O=C(O)C(O)C(O)C(=O)O (stereo unspecified) [Metaraminol Bitartrate],0.811,0.967,0.771,0.605
CC1c2cccc(O)c2C(=O)C2=C(O)C3(O)C(=O)C(C(N)=O)=C(O)C(N(C)C)C3C(O)C21.CC1c2cccc(O)c2C(=O)C2=C(O)C3(O)C(=O)C(C(N)=O)=C(O)C(N(C)C)C3C(O)C21.CCO.Cl.Cl.O (stereo unspecified) [Doxycycline Hyclate],0.6,0.929,0.385,1.04
Cc1ncc(CSSCc2cnc(C)c(O)c2CO)c(CO)c1O [Pyrithioxin],0.806,0.722,0.939,0.597
CC(NCCCc1cccc(C(F)(F)F)c1)c1cccc2ccccc12.Cl (stereo unspecified) [Cinacalcet HCl],0.936,0.876,0.996,1.69
CC(=O)NC1C(OC2C(C(=O)O)OC(OC3C4COC(O4)C(NS(=O)(=O)O)C3O)C(O)C2O)OC(CO)C(OC2CC(C(=O)O)C(OC3OC(COS(=O)(=O)O)C(OC4OC(C(=O)O)=CC(O)C4O)C(O)C3NC(C)=O)C(O)C2O)C1C (stereo unspecified) [Enoxaparin sodium],0.787,0.596,0.821,0.411
O=C(O)CCCCCCCC(=O)O [Azelaic acid],0.984,1.39,0.925,1.08
Nc1nc2ccc(OC(F)(F)F)cc2s1 [Riluzole],0.916,0.892,0.761,0.729
CC12C=CC(=O)NC1CCC1C2CCC2(C)C(C(=O)Nc3cc(C(F)(F)F)ccc3C(F)(F)F)CCC12 (stereo unspecified) [Dutasteride],0.584,0.79,0.645,0.864
O=c1[nH]c(=O)n(C2CC(O)C(CO)O2)cc1/C=C/Br (stereo unspecified) [Brivudine],0.808,1.09,0.783,0.835
CN/C(=C\[N+](=O)[O-])NCCSCc1ccc(CN(C)C)o1.Cl [Ranitidine Hydrochloride],0.843,0.959,0.816,0.902
Cc1ccc(/C(=C\CN2CCCC2)c2cccc(/C=C/C(=O)O)n2)cc1 [Acrivastine],0.98,1.17,0.99,1.03
Cc1ccccc1C(=O)O [o-Toluic acid],1.37,0.69,1.51,0.778
CCn1cc(C(=O)O)c(=O)c2cc(F)c(N3CCNCC3)nc21 [Enoxacin],0.673,0.861,0.632,0.68
Oc1cc2c(cc1O)C1c3ccc(O)c(O)c3OCC1(O)C2 (stereo unspecified) [Hematoxylin],1.13,0.916,0.99,0.565
Cc1ncc(C[n+]2csc(CCO)c2C)c(N)n1.Cl.[Cl-] [Thiamine HCl (Vitamin B1)],0.77,0.851,0.838,0.774
CC1(C)SC2C(NC(=O)C(NC(=O)N3CCN(S(C)(=O)=O)C3=O)c3ccccc3)C(=O)N2C1C(=O)[O-].[Na+] (stereo unspecified) [Mezlocillin Sodium],0.906,1.11,0.868,0.893
O=S(=O)([O-])Oc1ccc(C(c2ccc(OS(=O)(=O)[O-])cc2)c2ccccn2)cc1.[Na+].[Na+] [Sodium Picosulfate],0.695,0.744,0.763,0.755
CC1=CC(=O)CC(C)(C)C1(O)/C=C/C(C)=C\C(=O)O (stereo unspecified) [Abscisic Acid (Dormin)],1.09,0.753,0.993,0.702
CCc1oc2ccccc2c1C(=O)c1cc(Br)c(O)c(Br)c1 [Benzbromarone],0.571,0.847,0.525,0.677
CCCCNc1ccc(C(=O)OCCN(C)C)cc1.Cl [Tetracaine HCl],1.01,1.12,0.9,0.903
CC1(C)C(C(=O)[O-])N2C(=O)CC2S1(=O)=O.[Na+] (stereo unspecified) [Sulbactam sodium],0.753,1.08,0.691,0.833
C=CC1(C)CC(OC(=O)CSC2CC3CCC(C2)N3C)C2(C)C(C)CCC3(CCC(=O)C32)C(C)C1O (stereo unspecified) [Retapamulin],0.572,0.909,0.644,1.17
CN1CCN(CC/C=C2/c3ccccc3Sc3ccc(S(=O)(=O)N(C)C)cc32)CC1 [Thiothixene],0.895,1.2,0.908,2.06
CC1OC(OCC2OC(Oc3c(-c4ccc(OCCO)c(OCCO)c4)oc4cc(OCCO)cc(O)c4c3=O)C(O)C(O)C2O)C(O)C(O)C1O (stereo unspecified) [Troxerutin],0.752,1.05,0.833,1.03
c1ccc2c(c1)CCCC2C1=NCCN1 (stereo unspecified) [Tetryzoline],0.779,1.23,1.2,1.35
Cn1nnc(-c2ccc(-c3ccc(N4CC(CO)OC4=O)cc3F)cn2)n1 (stereo unspecified) [Tedizolid],0.707,1.37,0.523,1.03

Structure (SMILES),NF-kB reporter (A549-Dual [1]; irradiation: 8 Gy/4 fr),NF-kB reporter (A549-Dual [1]; irradiation: none),ISRE reporter (A549-Dual [2]; irradiation: 8 Gy/4 fr),ISRE reporter (A549-Dual [2]; irradiation: none)
COc1cc(C(C)=O)ccc1OCCCN1CCC(c2noc3cc(F)ccc23)CC1 [Iloperidone],0.63,0.767,0.819,1.01
COc1c2c(cc3oc(CO)cc(=O)c13)OC(C(C)(C)O)C2 (stereo unspecified) [Cimifugin],1.94,3.29,2.05,8.35
NS(=O)(=O)c1ccccc1 [Benzenesulfonamide],1.35,0.847,1.31,0.773
O=c1ccc2cc(O)c(O)cc2o1 [Esculetin],0.735,0.814,0.684,0.439
CN(C)CCCN1c2ccccc2Sc2ccc(Cl)cc21 [Chlorpromazine],1.1,1.24,1.01,1.89
"CC1(C)C2CCC1(C)C(O)C2 (single isomer, unassigned; (+)) [(+)-Borneol]",1.05,0.727,0.864,0.528
OC(c1ccccc1)(c1ccccc1)C12CC[N+](CCOCc3ccccc3)(CC1)CC2.[Br-] [Umeclidinium bromide],0.862,1.52,0.907,0.881
CC12CCC3c4ccc(O)cc4CCC3C1CCC2OC(=O)CCC1CCCC1 (stereo unspecified) [Estradiol Cypionate],0.616,1.02,0.343,0.576
O=C(O)C(O)C(O)C(=O)O.c1cnc2cc3c(cc2n1)C1CNCC3C1 [Varenicline Tartrate],0.521,0.72,0.619,0.765
C#CCNC1CCc2ccccc21 (stereo unspecified) [Rasagiline],0.903,1.13,0.698,0.661
CC1CCc2c(N3CCC(O)CC3)c(F)cc3c(=O)c(C(=O)O)cn1c23 (stereo unspecified) [Nadifloxacin],0.936,1.03,0.715,0.759
Cc1cn[nH]c1 [Fomepizole],0.842,0.92,0.74,0.808
CC(S)C(=O)NCC(=O)O (stereo unspecified) [Tiopronin],0.764,1.02,0.878,0.816
CC1=C(C/C=C(\C)CCCC(C)CCCC(C)CCCC(C)C)C(=O)c2ccccc2C1=O (stereo unspecified) [Vitamin K1],0.786,0.72,0.702,0.482
CCOC(=O)C1=C(C)NC(C)=C(C(=O)OC)C1c1cccc(Cl)c1Cl (stereo unspecified) [Felodipine],0.486,0.872,0.55,0.894
Nc1ccn(C2OC(CO)C(O)C2O)c(=O)n1 (stereo unspecified) [Cytidine],0.836,0.805,0.964,0.813
N=C(N)NCCCC1NC(=O)C(CCCCN)NC(=O)C(Cc2ccccc2)NC(=O)C(CC(=O)O)NC(=O)CNC1=O.O=C(O)C(F)(F)F (stereo unspecified) [Cyclo (-RGDfK)],0.93,0.677,1.1,0.737
CC(=O)OC/C=C(/C)CCC=C(C)C [Neryl acetate],0.699,0.823,0.704,0.634
CN(Cc1cnc2nc(N)nc(N)c2n1)c1ccc(C(=O)NC(CCC(=O)[O-])C(=O)[O-])cc1.[Na+].[Na+] (stereo unspecified) [Methotrexate disodium],0.673,1.87,0.183,0.959
CC1CCCC(C)N1NC(=O)c1ccc(Cl)c(S(N)(=O)=O)c1 (stereo unspecified) [Clopamide],0.552,0.646,0.603,0.543
CC(C)(C)CC(C)(C)c1ccc(OCCOCC[N+](C)(C)Cc2ccccc2)cc1.[Cl-] [Benzethonium Chloride],0.703,1.77,0.147,0.529
CC1(C)SC2C(NC(=O)C(N)c3ccccc3)C(=O)N2C1C(=O)[O-].[Na+] (stereo unspecified) [Ampicillin sodium],1.04,0.871,1.11,0.847
COCCCC/C(=N\OCCN)c1ccc(C(F)(F)F)cc1.O=C(O)/C=C\C(=O)O [Fluvoxamine maleate],0.751,0.808,1.02,0.981
CN(C)C1C(O)=C(C(N)=O)C(=O)C2(O)C(O)=C3C(=O)c4c(O)cccc4C(C)(O)C3CC12.Cl (stereo unspecified) [Tetracycline HCl],0.728,0.874,0.499,0.736
CC(C)C[C@H](N)C(=O)O [L-Leucine],0.826,0.87,0.834,0.763
Cc1cccc(C)c1NC(=O)C1CCCCN1C.Cl (stereo unspecified) [Mepivacaine HCl],0.784,1.04,0.939,0.989
COc1ccc(-c2cc(=O)c3c(O)cc(OC4OC(COC5OC(C)C(O)C(O)C5O)C(O)C(O)C4O)cc3o2)cc1O (stereo unspecified) [Diosmin],0.836,0.764,0.78,0.637
